# Test results published in PubChem BioAssay AID1347417 (National Center for Advancing Translational Sciences (NCATS), 2020).
# The whole screen tested about 120,000 compounds, of which about 5,300 (4.4%) were called active. This list was built around the results that the source calls inconclusive (neither active nor inactive); the mix of calls is not that of the screen. The call rests on the fitted dose curve; in most records, active means well fitted inhibition curve with a large enough effect; inconclusive means small, poorly fitted or top-dose-only effect; inactive means no such curve, though single readings can be large or run the other way. Where the call is inconclusive, the potency comes from a doubtful curve fit.
# Test: qHTS Primary assay for Inhibitors of Plasmodium falciparum Dd2 growth in vitro; further: nearly all actives have a fitted effect of over 65% in size;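 on activity, negative = inhibition: plate controls were DMSO vehicle for no effect and reference drug for full effect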
# Details: P. falciparum Dd2 growth, SYBR Green, 72 h; activity, negative = inhibition: at 28.9 µM (top of the series) unless noted; series mostly up to 28.9 µM
# In short: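 Readout: SYBR Green fluorescence, 485 nm excitation, 535 nm emission, after ~16 h lysis at 37C. Before that, Dd2-infected red cells (2.5% hematocrit) grew 72 h with compound, 29 uM top final concentration.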
# Potency means the concentration at half of the fitted maximal effect; tags describe the fitted curve by direction and shape.
SMILES,Potency,"activity, negative = inhibition",outcome
COc1ccccc1-c1cc([C@H]2CN3CC[C@H]2C[C@@H]3CNC(=O)c2ccco2)n(C)n1,"inconclusive: 10 µM [inhibitor, partial curve, poor fit]",–,–
CC(=O)c1cccc(NC(=O)C2CCN(c3nnc(-n4cccc4)s3)CC2)c1,–,inconclusive: -84% [inhibitor] [at 5.79 µM],–
CCCN1C(=O)c2[nH]nc(-c3ccc(F)cc3)c2C1c1ccc(O)c(OCC)c1 (stereo not drawn),–,–,inactive
CNC(=O)c1cc[nH]c1C1CCCN(C(=O)Cc2cccnc2)C1 (stereo not drawn),–,inactive: 6.94%,–
Cc1nc(-c2cn(C3CCCN(C(=O)c4ccc(Cl)s4)C3)nn2)no1 (stereo not drawn),"inconclusive: 3.98 µM [inhibitor, partial curve, poor fit]",–,–
COc1ccc(CC(=O)N[C@H]2[C@H](O)[C@H](O)C[C@@H]2c2ccc(C(F)(F)F)cc2)cc1,–,inactive: -15.4% [at 44.1 µM],–
O=C(Cc1ccc(F)cc1)N1CCN(C(=O)c2nnn3c2COC(c2ccc(F)cc2)C3)CC1 (stereo not drawn),"inconclusive: 17.8 µM [inhibitor, single point]",–,–
COc1ccc(C2Cn3nnc(C(=O)N4CCN(C(=O)CCc5ccccc5)CC4)c3CO2)cc1 (stereo not drawn),"inconclusive: 3.98 µM [inhibitor, partial curve, poor fit]",–,–
COc1ccc(CCNc2nc(-c3ccccc3OC)cc(C(F)(F)F)n2)cc1OC,"inconclusive: 7.94 µM [inhibitor, partial curve, poor fit]",–,–
NCCn1cc(C(=O)N2CCC(c3n[nH]c(=O)n3-c3ccccc3)CC2)nn1,–,inactive: -17.9%,–
CC(C)Nc1cc(N2CCN(C3CCCCC3)CC2)c2noc3c2c1C(=O)c1ccccc1-3,"inconclusive: 10 µM [inhibitor, single point]",–,–
COCC1CN(C)CC12CCN(Cc1cccnc1)CC2 (stereo not drawn),–,inactive: -2.15%,–
Cc1nc(N2CCC(NC(=O)c3cccc4[nH]ccc34)CC2)cc(C(F)(F)F)n1,"inconclusive: 8.91 µM [inhibitor, partial curve, poor fit]",–,–
O=C1CCN(C(=O)Cc2ccccc2)CCCC(c2nc(-c3cnccn3)no2)CCN1 (stereo not drawn),"inconclusive: 3.16 µM [inhibitor, single point]",–,–
NC(CN1CCCC1)C1CCCCC1 (stereo not drawn),"inconclusive: 3.16 µM [inhibitor, full curve]",–,–
COc1ccc(C(=O)Cn2c(=O)n3nc(CCn4nc(C)cc4C)nc3c3cc(OC)c(OC)cc32)cc1,"inconclusive: 0.1 µM [inhibitor, partial curve, poor fit]",–,–
Cc1cccc(NC(=O)N2CCC(N3CC4CC(C3)[C@H]3CCCC(=O)N3C4)CC2)c1 (stereo partly drawn),–,inactive: -8.67%,–
O=C(COc1cccc(-c2nnc3n2CCCC3)c1)N1CCN(c2ccc(F)cc2)CC1,"inconclusive: 1.41 µM [inhibitor, full curve, poor fit]",–,–
O=C(C1CCCC1)N1CC2(CCN(Cc3ccc(Cl)cc3)C2)Cc2ccccc21 (stereo not drawn),active: 14.1 µM,–,–
COC[C@@H]1CN(C(=O)CCc2c(C)nn(C)c2C)C[C@H]1c1ccncc1,–,inactive: -18.5%,–
O=C(CC1=C2CCCCC2NC1=O)Nc1ccccc1F (stereo not drawn),–,inactive: -8.8%,–

SMILES,Potency,"activity, negative = inhibition",outcome
COc1cc(F)ccc1-c1ccnc2ncnn12,–,inactive: -4.58%,–
C#C[C@H]1CN2CC[C@H]1C[C@@H]2CNS(=O)(=O)c1ccc2ccccc2c1,"inconclusive: 0.282 µM [inhibitor, full curve, poor fit]",–,–
Clc1ccccc1C1(c2ccnc(-c3ccccn3)n2)CCNCC1,"inconclusive: 7.94 µM [inhibitor, partial curve, poor fit]",–,–
COC(=O)c1sc(NC(=O)CC[C@H]2NC(=O)c3ccccc3NC2=O)nc1C,"inconclusive: 10 µM [inhibitor, partial curve, poor fit]",–,–
CCOC(=O)c1c(C)oc2nc(C)nc(NCCCN3CCN(c4ccccc4OC)CC3)c12,"inconclusive: 7.08 µM [inhibitor, partial curve]",–,–
Cc1nc(-c2ccco2)cc([C@H]2CN3CC[C@H]2C[C@@H]3CNC(=O)Nc2ccccc2)n1,"inconclusive: 3.16 µM [inhibitor, single point]",–,–
O=C(c1ccc(F)cc1)N1CCC2(CC1)CN[S+](=O)([O-])c1ccccc1N2,–,inactive: -20.1%,–
CNC(=O)CCn1ncc2cc(OC3CCc4cccc(-c5ccccc5)c43)ccc21 (stereo not drawn),active: 2.82 µM,–,–
CN(Cc1ccccc1)C(=O)Cn1c2c(c(=O)n1Cc1ccccc1)CCN(Cc1ccccc1)C2,–,inactive: 7.04%,–
CNC(=O)c1[nH]nc2c1C(c1c(C)nc3ccc(Cl)cn13)CC(=O)N2 (stereo not drawn),–,inactive: -3.03%,–
O=C(c1ccccc1Cl)N1CCC2(CC1)NC(=O)N(Cc1ccc(F)cc1)C2=O,"inconclusive: 5.62 µM [inhibitor, partial curve, poor fit]",–,–
O=C(Cc1ccccc1)Nc1ccc([C@@H](O)[C@H]2COCC(=O)N2CC2CC2)cc1,"inconclusive: 31.6 µM [inhibitor, single point]",–,–
Cc1cc(C(=O)Nc2cccc(C(F)(F)F)c2)c2c(C)nn(-c3cccc(F)c3)c2n1,"inconclusive: 11.2 µM [inhibitor, single point]",–,–
Cc1nn2c3c(cnc2c1-c1ccc(F)cc1)C(=O)CC(c1ccccc1)C3 (stereo not drawn),"inconclusive: 1 µM [inhibitor, single point]",–,–
COC(=O)C1=C(C)N=C2SC=C(CC(=O)NCc3ccccc3)N2C1c1ccccc1C (stereo not drawn),"inconclusive: 2.51 µM [inhibitor, single point]",–,–
Cc1ccc(CNC(=O)CCCn2c(=O)c3ccccc3n(Cc3ccccc3Cl)c2=O)cc1,"inconclusive: 3.98 µM [inhibitor, full curve, poor fit]",–,–
COc1ccc(C(=O)N2CCC3(CC2)NC(=O)N(Cc2ccc(Cl)cc2)C3=O)cc1,–,–,inactive
COc1ccc(C(=O)N2CCCCCNC(=O)[C@@H]3CCCC[C@@H]32)c(OC)n1,–,inactive: 24.2%,–
Cn1c(-c2cccc(Br)c2)cnc1NCc1cccc(F)c1,"inconclusive: 10 µM [inhibitor, single point]",–,–
CCOc1ccccc1CN1CCC2(CCN([S+](=O)([O-])c3cccs3)CC2)Oc2ccccc21,"inconclusive: 0.447 µM [inhibitor, full curve, poor fit]",–,–
COc1cccc(CCNC(=O)c2c(C)noc2-c2ccco2)c1,"inconclusive: 4.47 µM [inhibitor, partial curve]",–,–

SMILES,Potency,"activity, negative = inhibition",outcome
CC(C)c1ccc(NC(=O)C2CCCN(S(=O)(=O)c3ccc4[nH]c(=O)oc4c3)C2)cc1 (stereo not drawn),"inconclusive: 10 µM [inhibitor, single point]",–,–
CCCN(CCC)CCCNC(=O)Cn1ncn2c(cc3sc(CC)cc32)c1=O,"inconclusive: 12.6 µM [inhibitor, single point]",–,–
O=C(Cn1cccc1-c1nc(-c2ccc(F)cc2)no1)NCCC1=CCCCC1,"inconclusive: 7.94 µM [inhibitor, single point]",–,–
CCOc1ccc(-c2cc(NC(=O)Nc3ccccc3Cl)c(C(=O)OC)s2)cc1,"inconclusive: 17.8 µM [inhibitor, single point]",–,–
O=C(NCCCN1CCN(c2ccccc2F)CC1)c1ccc2nc(Cc3ccccc3)oc2c1,"inconclusive: 10 µM [inhibitor, single point]",–,–
Cc1ccc(C(=O)N2CCN(c3ccccc3)CC2)cc1NC(=O)c1nsc2ccccc12,"inconclusive: 17.8 µM [inhibitor, single point]",–,–
N#Cc1c(C(F)(F)F)cc(-c2cccs2)nc1SCC(=O)Nc1cccc(Br)c1,–,inconclusive: -75% [inhibitor] [at 5.79 µM],–
Cc1ccc(/C=C/c2onc(C)c2S(=O)(=O)N2CCC(C(=O)Nc3cccc(C#N)c3)CC2)cc1,"inconclusive: 17.8 µM [inhibitor, single point]",–,–
Cc1ccccc1C(=O)NC(C(=O)N1CCCC1)C1CCN(C(=O)c2ccc3c(c2)OCO3)CC1 (stereo not drawn),–,–,inactive
CCOC(=O)COc1ccc(CC)cc1C(=O)c1ccn2nc(-c3ccc(C)cc3)cc2n1,–,–,inactive
COc1ccc(C(=O)N2CCn3c(nn(-c4ccc(Cl)cc4)c3=O)C2)cc1,–,inactive: 11.7%,–
Cc1ccccc1CSc1nc2c([nH]c3ccccc32)c(=O)n1-c1ccccc1,"inconclusive: 0.0794 µM [inhibitor, full curve, poor fit]",–,–
O=C(NCc1cn[nH]c1-c1ccc(F)cc1)C1COc2ccccc2C1 (stereo not drawn),–,inactive: -9.83%,–
CCC1=C(C(=O)OC)C(c2ccccc2OC)N2C(CC(=O)N3CCCCC3C)=CSC2=N1 (stereo not drawn),"inconclusive: 1 µM [inhibitor, partial curve, poor fit]",–,–
COc1cccc(NC(=O)COc2cccc(-c3nnc4n3CCCC4)c2)c1,"inconclusive: 2.82 µM [inhibitor, partial curve, poor fit]",–,–
COc1ccc(C(CC(=O)NCCC(C)C)c2c[nH]c3ccccc23)c(OC)c1 (stereo not drawn),"inconclusive: 1.58 µM [inhibitor, partial curve]",–,–
CCC(=O)N1CCc2sc(C(=O)N3CCN(c4cccc(Cl)c4)CC3)cc2C1,"inconclusive: 10 µM [inhibitor, single point]",–,–
CCOc1ccccc1NC(=O)CSc1nc2cc(OC)c(OC)cc2c2nc(CCn3c(C)nc4ccccc43)nn12,active: 3.16 µM,–,–
N#Cc1cccc(NC(=O)C2CCN(S(=O)(=O)c3ccc4c(c3)CCCN4C(=O)C3CCC3)CC2)c1,"inconclusive: 11.2 µM [inhibitor, partial curve, poor fit]",–,–
CCCN(CCC)C(=O)Cn1c(SCc2cccc(F)c2)nc2cccnc21,"inconclusive: 10 µM [inhibitor, single point]",–,–
CN1CCC(OC2CCN(S(=O)(=O)c3cccc(Br)c3)CC2)CC1,"inconclusive: 3.98 µM [inhibitor, partial curve, poor fit]",–,–
